# In article PMC4336329 (PLoS ONE, 2015):
# Out of some 310,000 compounds screened, about 14,000 (4.5%) showed an effect of 50% or more. The effect is printed as a negative number. Some of the results follow.
# Biological target: human ether-à-go-go-related gene (hERG) potassium channel (human, UniProt Q12809)
# Experiment: primary screen, population patch clamp on CHO cells stably expressing hERG
# 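Further: peak tail current of the secondary pulse compared with the same well before compound.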
# Sequence of human ether-à-go-go-related gene (hERG) potassium channel (Q12809 whole entry, looked up): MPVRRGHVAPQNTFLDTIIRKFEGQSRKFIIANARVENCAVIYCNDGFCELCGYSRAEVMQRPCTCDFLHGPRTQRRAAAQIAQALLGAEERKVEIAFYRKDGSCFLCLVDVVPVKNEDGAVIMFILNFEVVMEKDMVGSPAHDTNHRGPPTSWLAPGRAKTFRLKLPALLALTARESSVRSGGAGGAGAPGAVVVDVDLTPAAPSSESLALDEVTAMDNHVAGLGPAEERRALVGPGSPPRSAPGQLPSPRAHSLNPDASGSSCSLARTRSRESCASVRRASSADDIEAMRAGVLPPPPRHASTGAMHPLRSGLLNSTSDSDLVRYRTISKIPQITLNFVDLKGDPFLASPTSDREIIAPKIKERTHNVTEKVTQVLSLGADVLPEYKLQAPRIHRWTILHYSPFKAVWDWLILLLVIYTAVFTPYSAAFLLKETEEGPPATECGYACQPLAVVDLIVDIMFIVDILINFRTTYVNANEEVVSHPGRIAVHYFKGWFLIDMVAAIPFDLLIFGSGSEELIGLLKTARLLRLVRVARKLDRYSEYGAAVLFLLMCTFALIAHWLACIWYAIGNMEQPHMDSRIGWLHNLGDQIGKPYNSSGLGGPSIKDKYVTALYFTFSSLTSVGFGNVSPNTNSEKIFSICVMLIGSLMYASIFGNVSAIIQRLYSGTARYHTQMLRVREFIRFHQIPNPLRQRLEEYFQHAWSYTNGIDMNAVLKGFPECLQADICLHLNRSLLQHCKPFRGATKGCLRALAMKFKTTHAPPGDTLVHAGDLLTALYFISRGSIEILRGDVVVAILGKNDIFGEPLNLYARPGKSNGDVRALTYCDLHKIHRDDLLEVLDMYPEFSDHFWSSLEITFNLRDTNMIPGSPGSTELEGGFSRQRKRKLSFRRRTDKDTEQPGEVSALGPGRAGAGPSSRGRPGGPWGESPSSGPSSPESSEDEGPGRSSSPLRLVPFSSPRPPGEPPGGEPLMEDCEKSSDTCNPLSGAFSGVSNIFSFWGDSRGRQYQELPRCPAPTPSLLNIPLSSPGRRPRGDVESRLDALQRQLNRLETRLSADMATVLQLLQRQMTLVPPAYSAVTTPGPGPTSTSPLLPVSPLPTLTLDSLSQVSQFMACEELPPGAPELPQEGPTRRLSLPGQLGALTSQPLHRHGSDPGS
row,Compound,"hERG current change (%, negative = inhibition) at 10uM"
1,Cc1ccc(NC(=O)CS(=O)(=O)c2cn(CC(=O)N3CCOCC3)c3ccccc23)cc1,-0.0981%
2,O=C(COc1ccc2c(c1)oc(=O)c1ccccc12)N[C@@H](Cc1c[nH]c2ccccc12)C(=O)O,14.7%
3,CCCC(=O)N(CCc1ccc(OC)cc1)Cc1nc2ccccc2c(=O)[nH]1,-8.61%
4,CCOc1ccc(Cl)cc1Nc1nc(NCCO)nc(N2CCCC2)n1,-2.56%
5,CCOC(=O)COc1ccc(C(=O)NC2CCCCC2)cc1,-1.66%
6,c1coc(-c2nnc(-c3ccco3)nn2)c1,13.6%
7,COc1ccc(CNCc2cccc(Oc3ccccc3)c2)cc1,-43.5%
8,Cn1c(SCC(=O)N2CCOCC2)nnc1-c1cccc(NC(=O)c2ccccc2)c1,23.8%
9,Cc1ccccc1SCc1noc(C(=O)NCC2CCCO2)c1C(=O)O (stereo not drawn),5.23%
10,Cc1cc(F)ccc1S(=O)(=O)N1CCCOC1CNC(=O)C(=O)NCC(C)C (stereo not drawn),-6.26%
11,O=P(/C(=N/O)Sc1ccccc1)(N1CCOCC1)N1CCOCC1,-26.8%
12,COc1ccc(-n2nc(C(=O)NCC(=O)NCCCN3CCOCC3)c3ccccc3c2=O)cc1OC,17.7%
13,CCOC(=O)c1c(NC(=O)CSc2nnc(C)c(=O)[nH]2)sc2c1CCCC2,7.54%
14,C[C@@]12C(=O)N(c3cccc(Br)c3)C(=O)N1[C@H](c1ccc(Cl)cc1)[C@@H]1C(=O)N(C3CCCCC3)C(=O)[C@@H]12,4.38%
15,Cc1ccc(C(NC(N)=O)c2ccccc2)cc1 (stereo not drawn),8.71%
16,COc1cccc2c(N/N=C/c3ccc(O)c(O)c3)cc(C)nc12,18.9%
17,CCN(Cc1ccccc1)C(=O)COc1ccccc1,9.21%
18,Cc1ccc(NC(=O)/C(C#N)=N/Nc2ccc(C(=O)O)cc2)c(C)c1,1.82%
19,CCOc1ccc(CN(C)C(=O)c2cc3ccccc3o2)cc1OC,-4%
20,Cc1cccc(CCNC(=O)Cn2ncc3c([nH]c4ccccc43)c2=O)c1,14.2%
21,COc1ccc(COc2cc(-c3cccc(OC)c3)nc3ccc(NC(=O)c4ccc(C)cc4)cc23)cc1,-2.81%
22,O=C(Nc1ccc(Cl)cc1)NC1CCCC1Cc1ccco1 (stereo not drawn),-15.3%

row,Compound,"hERG current change (%, negative = inhibition) at 10uM"
1,Cc1cccc(NC(=O)CCC(=O)Nc2nnc(C3CCCCC3)s2)c1,20.8%
2,COc1ccc(N(Cc2ccccc2)S(=O)(=O)c2cc(C(=O)O)ccc2Cl)cc1,5.3%
3,O=c1c2ccccc2nc(SCc2ccccc2)n1Cc1ccco1,1.3%
4,O=C(Nc1ccccn1)c1cccnc1,-7.84%
5,CN(C)CCN(C(=O)CN1C(=O)c2ccccc2C1=O)c1nc2cc3c(cc2s1)OCO3.Cl,-57%
6,COc1ccccc1NC(=O)NCc1ccc(C)n1C,12.8%
7,CC(C)N(C(=O)CSc1nc2ccccc2n1-c1ccccc1)C(C)C,3.18%
8,COc1ccc(OC)c(NC(=O)CSc2ccc3nnc(-c4cccnc4)n3n2)c1,-61.1%
9,O=C(OCc1nnc(-c2ccccc2)o1)c1cccnc1Cl,8.07%
10,CN(C)C(=O)c1cn(-c2ccccc2)nc1-c1cc2ccccc2oc1=O,-33.4%
11,C/C(N)=C(/C#N)C(=O)COC(=O)[C@@H](NC(=O)c1ccccc1Cl)C(C)C,4.16%
12,O=C1NC(=S)N(C(=O)c2ccc(F)cc2)/C1=C/c1cccnc1,4.79%
13,O=C(c1ccc(F)cc1)c1c[nH]c(C(=O)NCc2cccnc2)c1,2.97%
14,COc1ccc(NS(=O)(=O)c2cn(C)c(=O)n(C)c2=O)c(OC)c1,-0.648%
15,CCOC(=O)N1CCN(c2nc(-c3ccccc3)c3cc(C)ccc3n2)CC1,-8.98%
16,Cc1ccccc1-c1noc(C23CC4CC(CC(C4)C2)C3)n1,14.7%
17,O=C(CSc1ccc2nnc(CCNC(=O)c3ccccc3)n2n1)NCc1ccc(F)cc1,2.34%
18,O=C(Oc1coc(CSc2ncccn2)cc1=O)c1ccco1,3.46%
19,COc1ccc2c(c1OC)C(=O)N(c1ccccn1)C2,-3.1%
20,Cc1cccn2c(=O)c3cc(C(=O)NCCc4ccccc4)c(=N)n(CC4CCCO4)c3nc12 (stereo not drawn),-82.3%
21,COc1ccc(C(C)C)cc1S(=O)(=O)N1CCN(C)CC1,9.86%
22,CC(OC(=O)c1cnccn1)C(=O)Nc1nc(-c2cccc([N+](=O)[O-])c2)cs1 (stereo not drawn),-35%

row,Compound,"hERG current change (%, negative = inhibition) at 10uM"
1,Cc1cc(=O)n2[nH]c(C(F)(F)F)c(-c3ccccc3)c2n1,3.6%
2,COc1ccc(CCC(=O)OCC(=O)Nc2ccc3[nH]c(=O)[nH]c3c2)cc1,2.2%
3,CC(=O)Nc1nnc(Cc2c[nH]c3ccccc23)s1,24.7%
4,CCn1nc(C(=O)OCC(=O)c2cc(C)n(Cc3cccs3)c2C)c2ccccc2c1=O,7.14%
5,CCn1c(SCC(=O)N(C)CCC#N)nc2cc(S(=O)(=O)N3CCOCC3)ccc21,14.1%
6,Cc1ccccc1C(OCCN(C)C)C1CCCCC1.O=C(O)C(=O)O (stereo not drawn),-16.3%
7,COc1ccc(C(CNC(=O)CCC(=O)c2ccc(C)s2)N2CCOCC2)cc1 (stereo not drawn),-6.59%
8,O=C(Nc1ccc(F)cc1F)c1ccc(S(=O)(=O)N2CCCCC2)cc1,1.1%
9,COc1ccc(SN=C2C(C)=CC(=O)C=C2C)cc1,11.6%
10,Cc1ccc(NC(=O)Cc2ccsc2)cc1Cl,11.7%
11,CC(C)(CO)N=Cc1c(O)[nH]c2ccccc12,-6.21%
12,O=C(CN1CCN(C(=O)N2CCOCC2)CC1)Nc1ccc(Br)cc1,-72.5%
13,O=S(=O)(c1ccc(Br)cc1)N1CCCc2ccccc21,2.51%
14,COC(=O)c1cc(NS(=O)(=O)c2ccc(C)c3ccccc23)ccc1N1CCOCC1,0.538%
15,NNC(=O)c1sc2cc(C(F)(F)F)cnc2c1-c1cccs1,7.73%
16,COc1ccc(OC)c2[nH]c(=O)c(CCNC(=O)c3ccc4c(c3)OCO4)cc12,-10.2%
17,CCOC(=O)[C@H]1[C@H]2COc3cc(OC)ccc3[C@@H]2N2C(=O)N(c3cccc(Cl)c3)C(=O)[C@@]12C,1.79%
18,CC(C)(C)OC(=O)N/N=C\c1ccc[nH]1,11%
19,O=C(C1CCCC1)N1CCN(S(=O)(=O)c2ccc(F)c(F)c2F)CC1,-6.2%
20,Cc1cc2c(cc1C)NC1(C(=O)Nc3ccccc31)C1=C(CC(C)(C)CC1=O)N2 (stereo not drawn),4.27%
21,Cc1nn(Cc2ccccc2)c(=O)c2nn(-c3ccc(Cl)cc3)c(C)c12,0.936%
22,O=C(OCC(=O)N1CCCc2ccccc21)c1ccc(C(F)(F)F)cc1,-8.53%

row,Compound,"hERG current change (%, negative = inhibition) at 10uM"
1,O=c1[nH]c(NCc2ccco2)nnc1Cc1ccccc1Cl,4.77%
2,CCCOCC1CC2(SC(=Nc3ccc(C)cc3)NC2=O)C(=O)O1 (stereo not drawn),2.19%
3,Cn1c(=O)c(=O)n(C)c2cc(N3CCCC3)c(NS(=O)(=O)c3ccc(Cl)cc3)cc21,-44.3%
4,Cc1cc(/C=C2\NC(=S)NC2=O)c(C)n1-c1cccnc1,8.09%
5,COc1ccccc1NS(=O)(=O)c1ccc(Cl)cc1,-19.5%
6,COc1ccc(N2C(=NC(=O)CCC3CCCC3)SC3CS(=O)(=O)CC32)cc1 (stereo not drawn),12.4%
7,O=C(CCc1ccccc1)NNC(=O)Nc1ccccc1,1.26%
8,CCOc1ccc(NC(=O)C2CCN(S(=O)(=O)c3c(C)n[nH]c3C)CC2)cc1,-4.37%
9,O=C(CSc1nnnn1-c1ccc(F)cc1)c1ccc(O)c(O)c1,-33%
10,O=C(O)c1cccc2cc(-c3ccccc3)oc(=O)c12,17.3%
11,CC(C)(C)NC(=O)NC(=O)CN1CCN(S(=O)(=O)/C=C/c2ccccc2)CC1,2.49%
12,Cc1cc(C)nc(N(C#N)CCOc2ccc(Cl)cc2)n1,-9.86%
13,CC(NS(=O)(=O)/C=C/c1ccccc1)c1ccccc1 (stereo not drawn),1.99%
14,CS(=O)(=O)c1[nH]nc(-c2ccccc2Cl)c1C#N,9.78%
15,Cc1nnc(SCc2ccc(C(=O)O)cc2)s1,-0.778%
16,COc1cccc(C(=O)CC(C(=O)O)c2ccc(Cl)cc2)c1 (stereo not drawn),10.1%
17,COc1ccc(C(C)NC(=O)C23CC4CC(CC(C4)C2)C3)cc1OC (stereo not drawn),3.91%
18,Cc1cc(C(=O)CSc2nnc(-c3ccc(OC(F)F)cc3)o2)c(C)n1Cc1cccs1,3.5%
19,CCC(CC)C1=NN2C(=N)/C(=C\c3cc(C)n(-c4cccc(C)c4)c3C)C(=O)N=C2S1,-0.816%
20,CCC(=O)N1CCc2cc(S(=O)(=O)NCCC(=O)Nc3cc(C)cc(C)c3)ccc21,-3.31%
21,O=C(NCCCN1CCOCC1)C1CC(=O)N(C2CCCCC2)C1 (stereo not drawn),13.3%
